# Publication PMC6919601, “Identification of Plasmodium dipeptidyl aminopeptidase allosteric inhibitors by high throughput screening” (PLoS ONE, 2019)
# Hit rate of the full screen: of about 110,000 compounds, about 230 (0.21%) showed an effect of 50% or more. This is one part of the list.
# Target: DPAP1 (Plasmodium falciparum, UniProt Q8IIJ9)
# Assay: primary screen, percent inhibition; read by cleavage of a fluorogenic dipeptide substrate; higher = more effect of the substance
# Set-up: species or system P. falciparum D10 trophozoite lysates; single well
# 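Note: 30 min substrate incubation versus DMSO and 10 µM JCP410 controls.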
# Sequence of DPAP1 (Q8IIJ9 whole entry, looked up): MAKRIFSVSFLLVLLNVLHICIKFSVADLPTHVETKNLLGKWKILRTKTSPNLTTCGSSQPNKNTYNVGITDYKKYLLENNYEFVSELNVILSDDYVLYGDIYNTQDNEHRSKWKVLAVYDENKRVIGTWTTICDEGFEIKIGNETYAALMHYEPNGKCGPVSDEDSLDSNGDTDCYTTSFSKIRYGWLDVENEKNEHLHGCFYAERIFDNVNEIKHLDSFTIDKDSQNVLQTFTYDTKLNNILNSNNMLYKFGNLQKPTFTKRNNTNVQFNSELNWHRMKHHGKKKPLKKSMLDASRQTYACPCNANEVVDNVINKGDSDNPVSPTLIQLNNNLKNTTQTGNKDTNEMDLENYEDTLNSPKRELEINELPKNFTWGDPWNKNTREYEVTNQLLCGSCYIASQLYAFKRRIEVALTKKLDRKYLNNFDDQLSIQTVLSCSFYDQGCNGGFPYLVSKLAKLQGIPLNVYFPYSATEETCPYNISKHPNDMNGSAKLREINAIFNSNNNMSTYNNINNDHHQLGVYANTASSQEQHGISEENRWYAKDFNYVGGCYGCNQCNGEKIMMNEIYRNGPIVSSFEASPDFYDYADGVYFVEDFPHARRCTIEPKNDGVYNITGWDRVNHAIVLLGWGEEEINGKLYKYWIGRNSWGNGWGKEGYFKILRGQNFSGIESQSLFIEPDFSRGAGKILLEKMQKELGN
row,Compound,% Inhibition @ 10 uM
1,O=C(Nc1ccc(Br)cc1)Nc1ccc2ccccc2c1,-6.25%
2,Cc1cc(C)c(C)c(S(=O)(=O)NCc2ccc(C(=O)Nc3cccnc3)cc2)c1C,-1.51%
3,CCCS(=O)(=O)c1c(S(=O)(=O)CCC)c2c(C)cccn2c1C(=O)OC,4.6%
4,COc1ccc(OC)c(C2CC(=O)C3=C(C2)NC(=O)CC3c2cccc(Cl)c2Cl)c1 (stereo not drawn),2.54%
5,O=C(O)c1ccc(COc2ccccc2CO)cc1,-3.23%
6,CCCNC(=O)C1=CC(c2ccc(C)cc2)=NS(=O)(=O)N1C,-4.68%
7,Cc1[nH]c(-c2ccc(F)cc2)cc1C(=O)N1CCCC(C)C1 (stereo not drawn),-2.52%
8,O=C(Nc1cccnc1)c1ccc(COc2cccc3ccccc23)cc1,0.413%
9,CC(C)(C)C(=O)N1CCCC(C(=O)Nc2sc3c(c2C(N)=O)CCCC3)C1 (stereo not drawn),8.37%
10,COc1cc(C(=O)NCCc2ccccc2)cc(OC)c1OC,1.33%
11,Cc1ccnc(SC2CC(=O)N(c3ccccc3)C2=O)n1 (stereo not drawn),2.36%
12,O=C(O)COc1ccc(Br)cc1/C=C1/NC(=O)NC1=O,3.15%
13,CCC1CCC(N2CCOCC2)CC1 (stereo not drawn),-3.15%
14,N#CC1=C(N)Oc2c(oc(CO)cc2=O)C1c1ccc(OCc2ccccc2)cc1 (stereo not drawn),2.38%
15,COc1ccc(C(=O)C2=C(O)C(=O)N(CCCn3ccnc3)C2c2ccccn2)cc1 (stereo not drawn),-15.1%
16,COC(=O)[C@H](C)NC(=O)[C@@H]1CCCN1C#N,0.744%
17,CC(C)c1ccc(C2CC(=O)Nc3ccccc3S2)cc1 (stereo not drawn),-4.82%
18,CCOc1ccccc1CNC(=O)Cn1ncn2c(cc3sc(C)cc32)c1=O,0.0198%
19,O=C(CCC(=O)c1ccc(Oc2ccccc2)cc1)Nc1ccc(F)cc1,-0.478%
20,COc1ccc(C(=N)NOC(=O)Cc2cccs2)cc1,-3.13%
21,Cc1ccc2c(c1)-c1onc(C(=O)NC3CCCc4ccccc43)c1CO2 (stereo not drawn),-2.87%
22,COc1ccc(C2CC(=O)c3cnc(NCCCOC(C)C)nc3C2)cc1 (stereo not drawn),2.24%
23,Cn1c(=O)c2c(nc(NCc3ccc4c(c3)OCO4)n2C)n(C)c1=O,0.0289%
24,CCCC(=O)c1ccc(N2CCN(C)CC2)c(F)c1,2.93%
25,CC(C)CS(=O)(=O)C1=NSC2=NC(=O)/C(=C\c3ccc(OS(C)(=O)=O)cc3)C(=N)N21,1.85%
26,O=C(O)Cn1nc2c3c(cccc31)C(=O)c1ccccc1-2,5.88%

row,Compound,% Inhibition @ 10 uM
1,Cc1cc(O)nc(SCC(C)C)n1,4.21%
2,O=C(COc1cccc(Cl)c1)Nc1cc(Cl)cc(Cl)c1,1.83%
3,CCOCCCNC(=O)Cn1ncc2c3ccccc3n(Cc3ccccc3)c2c1=O,0.137%
4,Cc1noc2ncnc(NCc3ccco3)c12,0.708%
5,CCCN1CCN(C(=O)c2ccc(CS(=O)c3ccc(OC)cc3)o2)CC1 (stereo not drawn),-1.86%
6,Oc1ccc(CNc2ccc(Cl)cc2)c2cccnc12,-15.4%
7,CCc1cc2c(N3CCN(c4ccccn4)CC3)ncnc2s1,-2.42%
8,CCN1CCN(c2ccc(NC(=O)Cc3ccccc3)cc2Cl)CC1,2.03%
9,CCOc1ccc2nc3sc(C(=O)Nc4ccc(C(C)=O)cc4)c(N)c3cc2c1,-4.12%
10,CN(Cc1ccccc1)C(=O)c1ccc(C(C)(C)C)cc1,8.01%
11,COc1ccc(OC)c(NC(=O)c2ccc(OC(F)F)c(OC)c2)c1,2.08%
12,Cc1cc(-c2ccc(S(=O)(=O)N(C)Cc3ccccc3)cc2)on1,0.453%
13,COc1ccc2c(c1)N1CCN=C1N2C,-3.44%
14,O=C(CCc1ccccc1)Nc1ccc(F)cc1F,3.53%
15,COc1ccc(CCC(C)NC2CCCC2)cc1 (stereo not drawn),-1.81%
16,Cc1ccc(N2CCN(Cc3cccc(C(F)(F)F)c3)CC2)cc1,-3.57%
17,COc1ccc(-c2cc(C(F)(F)F)n3nc(C(=O)O)cc3n2)cc1OC,0.512%
18,O=C(O)CN1CCc2ccccc21,-3.58%
19,COc1ccc(-c2[nH]nc3c2C(c2c[nH]nc2-c2ccc(F)cc2)C(C#N)=C(N)O3)cc1 (stereo not drawn),-2.78%
20,Nc1ccc(C(=O)Nc2ccc(OC(F)(F)C(F)F)c(NC(=O)c3ccc(N)cc3)c2)cc1,-5.28%
21,CS(=O)(=O)N(CC(=O)NC1CCCCC1)c1cccc2ccccc12,-3.04%
22,Cc1cc(C(=O)N2CCN(Cc3ccccc3)CC2)c2c(C)nn(-c3ccccc3Cl)c2n1,2.12%
23,COc1ccc(CNC(=O)CNS(=O)(=O)c2ccc(Br)cc2)cc1,-2.09%
24,C=CCn1c(-c2ccc(OC)cc2)nc2ccccc21,-2.28%
25,CC(C)OCCCN1C(=O)c2ccccc2C1C(=O)NC1CCCCC1 (stereo not drawn),3.66%
26,O=C(CN(c1ccc(F)cc1)S(=O)(=O)c1ccccc1)N1CCc2ccccc2C1,-2.99%

row,Compound,% Inhibition @ 10 uM
1,COC(=O)c1cc(Cl)c(NC(=O)c2ccc(F)cc2)cc1OC,6.49%
2,CCn1ncc(C2C(C#N)=C(N)OC3=C2C(=O)CC(C)(C)C3)c1C (stereo not drawn),1.03%
3,COc1ccc(-c2nc(CN3CCC(C(=O)NC4CCCC4)CC3)c(C)o2)cc1OC,-4.71%
4,Nc1ccccc1-c1nnc(S)nc1O,-3.66%
5,C/C=C(\C)CN1CCN(c2ccccn2)CC1,-0.603%
6,Clc1cccc(-n2cc(-c3ccccc3)c3c(NCCN4CCOCC4)ncnc32)c1,4.46%
7,CN1CCCN(Cc2ccc(N(C)C)cc2)CC1,0.708%
8,CCS(=O)(=O)C1=NN2C(=N)/C(=C\c3ccc(OS(C)(=O)=O)cc3)C(=O)N=C2S1,0.208%
9,Cc1ccc(Cl)cc1N1CCN(CC(O)COc2ccccc2F)CC1 (stereo not drawn),0.964%
10,COc1cccc(C2C3=C(CC(C)(C)CC3=O)N=C3C2=C(O)c2ccccc23)c1OC (stereo not drawn),-7.23%
11,CCOc1ccccc1/C=C1/SC(=O)N(CC(=O)N2CCCCC2)C1=O,-3.83%
12,N=C1SC(CC(=O)Nc2ccccc2Br)C(=O)N1c1ccccc1 (stereo not drawn),-3.49%
13,Cc1ccc(C2C(C#N)=C(N)Oc3cc(O)ccc32)cc1 (stereo not drawn),4.08%
14,CCOC(=O)C1=C(C)N2CCN=C2S1,-9.82%
15,COc1ccc(C(=O)N2CCN(c3ccc(C)cc3C)CC2)cc1OC,-5.95%
16,CCCCNC(=O)c1cc(C)nc2c1c(C)nn2-c1ccccc1,-4.97%
17,Cc1ccc2c(cnn2C(=O)CCCC(=O)NCc2ccc(Cl)cc2)c1,-2.88%
18,Cc1ccc(C(=O)CC2(O)C(=O)N(Cc3ccccc3C)c3ccccc32)cc1 (stereo not drawn),-2.8%
19,CCN(CC)CCN(C)Cc1ccc(F)c(F)c1,1.88%
20,Cc1ccc(C(=O)N(Cc2ccccc2)c2ccccn2)cc1,-4.95%
21,N#Cc1c(NC(=O)c2cccnc2)sc2c1CCCCCC2,-0.725%
22,COc1cccc(C2c3c(oc4ccccc4c3=O)C(=O)N2c2nccs2)c1 (stereo not drawn),-6.3%
23,Oc1ccccc1-c1cc(-c2ccco2)[nH]n1,3.04%
24,COc1ccccc1CNc1nc2ccccc2n2cnnc12,2.6%
25,COc1cnn(-c2ccccc2)c(=O)c1S,8.63%
26,Cc1ccc(CS(=O)Cc2ccc(C(=O)NCCC3=CCCCC3)o2)cc1 (stereo not drawn),3.36%

row,Compound,% Inhibition @ 10 uM
1,O=C1C2C3C=CC(C3)C2C(=O)N1c1ccc(Cl)cc1O (stereo not drawn),-0.968%
2,CCOc1ccc(CCNCc2cccn2-c2nnc(N3CCN(C4CCCCC4)CC3)s2)cc1,3.11%
3,CC(C)(C)C1CCc2c(sc3nnn(CC(=O)NCc4ccccc4)c(=O)c23)C1 (stereo not drawn),-0.946%
4,CCN1CCN(Cc2c(F)cccc2F)CC1,-0.0494%
5,C[C@@](Cc1cc2ccccc2[nH]1)(NC(=O)OCc1ccccc1)C(=O)NCC#N,1.61%
6,NC(=O)c1c(NC(=O)c2cccnc2Cl)sc2c1CCCCC2,-2.53%
7,O=C(CCn1cccn1)NC1CCN(Cc2ccccc2)CC1,-1.74%
8,Cc1ccccc1NC(=O)CN(c1ccc(Oc2ccccc2)cc1)S(C)(=O)=O,-3.78%
9,CCN(CC)CCCOc1ccc([N+](=O)[O-])cc1,1.35%
10,COc1ccc(/N=C(\C)C2=C(O)c3ccccc3C2=O)cc1,-2.8%
11,COc1cccc(NC(=O)C2=C(C)NC(=O)NC2c2cc(OC)ccc2OC)c1 (stereo not drawn),-1.73%
12,CC1CCCC(NC(=O)Nc2cn(C)c(=O)c3ccccc23)C1C (stereo not drawn),9.85%
13,COc1cc(NC(=O)c2ccc(C(C)(C)C)cc2)c(OC)cc1NC(C)=O,24.5%
14,CC(C)CNC(=O)Cn1nnc2sc3c(c2c1=O)CCC(C(C)(C)C)C3 (stereo not drawn),-4.54%
15,COc1ccc(CC(=O)N2CCN(c3ccccc3OC)CC2)cc1,1.08%
16,Cc1ccc(S(=O)(=O)Nc2ccnc(C(=O)NC3CCCCC3)c2)cc1,-4.61%
17,CN(C)C(=S)SCc1cc(=O)c(O)c(Br)o1,0.273%
18,COc1ccc(OC)c(C2C3=C(O)CC(C)(C)CC3=NC(C)=C2C(=O)Nc2ccccn2)c1 (stereo not drawn),4.3%
19,CC(C)(C)c1ccc(OCC(O)CN2CCN(Cc3ccc4c(c3)OCO4)CC2)cc1 (stereo not drawn),-2.86%
20,CC(C)(C)c1[nH]nc2c1C(c1cccc(F)c1)C(C#N)=C(N)O2 (stereo not drawn),-4.03%
21,Cc1ccccc1CN1CCN(Cc2ccc3c(c2)OCO3)CC1,-0.127%
22,O=C(Cn1c2ccccc2c2cnnc(O)c21)NCc1ccc2c(c1)OCO2,-5.87%
23,N#Cc1cc2c(=O)n3ccccc3nc2n(CCN2CCOCC2)c1=O,-2.28%
24,CC(=O)c1ccc(-c2ccc(/C=c3\sc4nc(-c5ccco5)nn4c3=O)o2)cc1,1.62%
